Experimental findings from the supplement of paper PMC5499739 are described below.

The full ranking holds about 16,000 sequences; the median of “Z-score” is about -0.37, and the highest 2% start at about 3.2. Some of the results follow.

The experiment has as its system RBM10 RRM1-ZnF (GST-tagged construct). The experiment in a line: RNAcompete 7-mer binding Z-score; higher = stronger binding preference. The protocol: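 RNAcompete: 20 pmol GST-tagged RBM10 RNA-binding constructs were incubated with a designed RNA pool of about 241,000 sequences up to 41 nt (1.5 nmol) on glutathione beads for 30 min at 4 °C and washed. Bound RNAs were identified by microarray hybridisation. Each RNA 7-mer is scored by a one-sided Z-score of its enrichment, computed over probes that contain the 7-mer within longer pool sequences.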
Turning to GAGUCGA, the “RNAcompete 7-mer binding Z-score” value stood at 0.319.
Turning to UGCCGAA, the “RNAcompete 7-mer binding Z-score” value is -0.321.
For the sequence CAGUGAG, the “RNAcompete 7-mer binding Z-score” value came to 0.706.
AUCCUUC: the “RNAcompete 7-mer binding Z-score” value is -0.795.
AGGGAAA: the “RNAcompete 7-mer binding Z-score” value was determined as 4.7.
In the case of GCCACCU, the “RNAcompete 7-mer binding Z-score” value was -0.6.
As to GGAAUCG, the “RNAcompete 7-mer binding Z-score” value was 0.992.
For the sequence GAUCUUG, the “RNAcompete 7-mer binding Z-score” value is -0.565.
For CAGUGCU, the “RNAcompete 7-mer binding Z-score” value was -0.357.
In the case of GCCUAGG, the “RNAcompete 7-mer binding Z-score” value came to 0.128.
To GCAAGGC belongs 0.352; to CAACUAG, -0.392.
Regarding AGGACGU, the “RNAcompete 7-mer binding Z-score” value stood at 0.504.
For AGCAUAU, the “RNAcompete 7-mer binding Z-score” value is -0.477.
The value for UUCCUCG was -0.681; that for AGCUGGA was 0.8.
For the sequence AUAUUUG, the “RNAcompete 7-mer binding Z-score” value is -0.405.
For the sequence AGAUGAU, the “RNAcompete 7-mer binding Z-score” value was 0.287.
With GCCAAAG, the “RNAcompete 7-mer binding Z-score” value is -0.386.
As for AAUCGAC, the “RNAcompete 7-mer binding Z-score” value is -0.425.
Turning to AACGUAA, the “RNAcompete 7-mer binding Z-score” value was -0.425.
In the case of CGGCUAC, the “RNAcompete 7-mer binding Z-score” value was -0.454.
For the sequence AAUGCUG, the “RNAcompete 7-mer binding Z-score” value is -0.0479.
As to UUUUUUG, the “RNAcompete 7-mer binding Z-score” value was -0.402.
In the case of GCCCUCA, the “RNAcompete 7-mer binding Z-score” value is -0.789.
Regarding UCGGCUC, the “RNAcompete 7-mer binding Z-score” value was -0.694.
Consider GGCACCU, for which the “RNAcompete 7-mer binding Z-score” value was -0.178.
Consider GCCGUAG, for which the “RNAcompete 7-mer binding Z-score” value was -0.162.
Regarding GGUGUGC, the “RNAcompete 7-mer binding Z-score” value came out at 2.3.
For UUGUUUA, the “RNAcompete 7-mer binding Z-score” value is -0.629.
CGGUUAA: the “RNAcompete 7-mer binding Z-score” value is 0.495.
With CGGUAUA, the “RNAcompete 7-mer binding Z-score” value stood at 0.287.
To ACCCUUU belongs -1.02; to UACUCUC, -0.711; to GACUAUC, -0.665.
The value for CCGCGAC was -0.74; that for CUCUCCC was -0.558; that for AGAAGGA was 3.99.
With UGACAAA, the “RNAcompete 7-mer binding Z-score” value is -0.545.
Take GGCGGAC: the “RNAcompete 7-mer binding Z-score” value was 1.19.
For the sequence AUGCCAU, the “RNAcompete 7-mer binding Z-score” value is -0.685.
The value for GUGAGCU was 0.517; that for GAUUCGA was -0.269.
Turning to CGAUGUU, the “RNAcompete 7-mer binding Z-score” value is -0.425.
For the sequence CUCAAUC, the “RNAcompete 7-mer binding Z-score” value was -0.769.
Turning to GGGUACC, the “RNAcompete 7-mer binding Z-score” value was determined as 1.18.
Turning to ACCCAAC, the “RNAcompete 7-mer binding Z-score” value is -0.6.
The value for AUCAGCC was -0.805; that for GGGCAGG was 3.39; that for UAACGCG was -0.253.
CAGCUAU: the “RNAcompete 7-mer binding Z-score” value was -0.668.
CUCGCCG: the “RNAcompete 7-mer binding Z-score” value is -0.688.
Regarding GAGUACC, the “RNAcompete 7-mer binding Z-score” value was -0.139.
The value for GGGCGGU was 2.28; that for UCCGAGG was 0.105; that for CCUUCGA was -0.922.
As to AGGGAUA, the “RNAcompete 7-mer binding Z-score” value amounted to 4.2.
On to CGUGGAA, for which the “RNAcompete 7-mer binding Z-score” value was 1.19.
For the sequence GCUUUAC, the “RNAcompete 7-mer binding Z-score” value is -0.694.
For the sequence CCGCAUU, the “RNAcompete 7-mer binding Z-score” value was -0.766.
With AGGUCUG, the “RNAcompete 7-mer binding Z-score” value is -0.113.
As for CAAAGUU, the “RNAcompete 7-mer binding Z-score” value was -0.457.
The value for ACGUCAU was -0.513.
Consider UGUUACG, for which the “RNAcompete 7-mer binding Z-score” value was -0.353.
For the sequence UGCUGUC, the “RNAcompete 7-mer binding Z-score” value was -0.558.
The value for UAUACUU was -0.633.
For the sequence CCCAUGC, the “RNAcompete 7-mer binding Z-score” value was -0.743.
Regarding AUGGCGG, the “RNAcompete 7-mer binding Z-score” value came to 2.03.
In the case of CUGUCGC, the “RNAcompete 7-mer binding Z-score” value was -0.617.
With UUCGUGC, the “RNAcompete 7-mer binding Z-score” value is -0.48.
To GGAUCAC belongs 0.17; to GCUGUCC, -0.474.
With UUAACUG, the “RNAcompete 7-mer binding Z-score” value was -0.477.
Turning to CUACCCC, the “RNAcompete 7-mer binding Z-score” value was -0.467.
As for GAACCUG, the “RNAcompete 7-mer binding Z-score” value was -0.617.
The value for CGUGUUC was -0.662; that for CCCCCUG was -0.376; that for GUUGGGC was 2.61.
On to GAAGCUC, for which the “RNAcompete 7-mer binding Z-score” value is -0.373.
For the sequence GAACUAU, the “RNAcompete 7-mer binding Z-score” value is -0.5.
For the sequence GACAGUA, the “RNAcompete 7-mer binding Z-score” value is -0.175.
Take CAUCUCG: the “RNAcompete 7-mer binding Z-score” value was -0.62.
Consider GAAAUGU, for which the “RNAcompete 7-mer binding Z-score” value was found to be 0.469.
As for AUUUCAA, the “RNAcompete 7-mer binding Z-score” value was -0.636.
As to UGGCUGU, the “RNAcompete 7-mer binding Z-score” value came out at 0.128.
GACCUUG: the “RNAcompete 7-mer binding Z-score” value was -0.743.
On to CUAAGCC, for which the “RNAcompete 7-mer binding Z-score” value was -0.802.
As for CUCCUAG, the “RNAcompete 7-mer binding Z-score” value was -0.581.
UCUAGUU: the “RNAcompete 7-mer binding Z-score” value was -0.665.
To CCCUUUG belongs -0.886; to AUAAUCC, -0.821; to GGGAAAC, 2.34.
UAAUCGG: the “RNAcompete 7-mer binding Z-score” value worked out at 0.267.
Take AGCUAUC: the “RNAcompete 7-mer binding Z-score” value was -0.665.
Turning to UAUAGCG, the “RNAcompete 7-mer binding Z-score” value was -0.0285.
The value for AUGAGCA was 0.131; that for GUCGCAA was -0.441; that for CUUUCAA was -0.925.
For UGUCGAC, the “RNAcompete 7-mer binding Z-score” value was -0.578.
Consider GCAAUAG, for which the “RNAcompete 7-mer binding Z-score” value turned out to be 0.361.
The value for CGAUCUA was -0.737; that for UUGUGCA was -0.379; that for CUAUUAG was -0.467.
To CUAACUA belongs -0.571; to CGUCAUG, -0.321; to CGUUCGC, -0.587.
Take UUUUUGC: the “RNAcompete 7-mer binding Z-score” value is -0.847.
As for AUCUUCA, the “RNAcompete 7-mer binding Z-score” value was -0.746.
Consider UGUGGAC, for which the “RNAcompete 7-mer binding Z-score” value was 0.794.
On to CUAAUGC, for which the “RNAcompete 7-mer binding Z-score” value was -0.782.
Turning to AGUUGCU, the “RNAcompete 7-mer binding Z-score” value was -0.334.
As to GUCUACG, the “RNAcompete 7-mer binding Z-score” value is -0.353.
Take GUCGACU: the “RNAcompete 7-mer binding Z-score” value is -0.47.
With UAAACAA, the “RNAcompete 7-mer binding Z-score” value was -0.392.
As for UGGUGCA, the “RNAcompete 7-mer binding Z-score” value worked out at 1.25.
The value for UCUCCCC was -0.587; that for UACAAGC was -0.461.
